From PubChem BioAssay AID1159614 (National Center for Advancing Translational Sciences (NCATS), 2016) come the findings set out here.

The campaign covered roughly 45,000 compounds. About 65 (0.1%) were called active. The call rests on the fitted dose curve; in most records, active means well fitted activation curve with a large enough effect; inconclusive means small, poorly fitted or top-dose-only effect; inactive means no such curve, though single readings can be large or run the other way. The list shows a part of the results.

Sequence of UniProt P54803 (P54803 whole entry, looked up): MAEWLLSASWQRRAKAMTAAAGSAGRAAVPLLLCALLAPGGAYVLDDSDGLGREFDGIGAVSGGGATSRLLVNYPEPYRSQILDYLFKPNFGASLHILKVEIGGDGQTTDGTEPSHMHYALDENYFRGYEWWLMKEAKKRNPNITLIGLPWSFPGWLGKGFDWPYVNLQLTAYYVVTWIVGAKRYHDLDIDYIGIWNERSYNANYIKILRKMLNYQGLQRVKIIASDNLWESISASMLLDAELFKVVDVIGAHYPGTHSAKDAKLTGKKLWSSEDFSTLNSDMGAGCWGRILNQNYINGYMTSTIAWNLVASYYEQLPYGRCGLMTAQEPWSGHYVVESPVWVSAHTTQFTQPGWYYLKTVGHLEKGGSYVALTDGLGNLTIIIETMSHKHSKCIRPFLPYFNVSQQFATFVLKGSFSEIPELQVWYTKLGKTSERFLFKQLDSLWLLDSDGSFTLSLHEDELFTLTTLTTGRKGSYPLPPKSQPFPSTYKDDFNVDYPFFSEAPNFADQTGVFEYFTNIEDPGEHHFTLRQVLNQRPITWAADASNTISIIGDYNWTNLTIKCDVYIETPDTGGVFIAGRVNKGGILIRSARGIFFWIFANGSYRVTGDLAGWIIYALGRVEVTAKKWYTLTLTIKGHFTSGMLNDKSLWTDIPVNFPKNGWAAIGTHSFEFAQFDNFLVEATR

This assay has as its target Galactocerebrosidase (Homo sapiens) (UniProt P54803). In words: A Novel Cell-Based Assay to Identify Small Molecules for B -Galactocerebrosidase. Further: 0% is about no effect; nearly all actives have a fitted effect of over 65% in size. Conditions: 145M-Twi-hGALC-G270D cells (Twitcher mouse brain line with human GALC G270D), HMU-beta-Gal fluorescence, 48 h; series mostly up to 57.5 µM; activation: at the top concentration. An outline of the steps:
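Live 145M-Twi cells (Twitcher mouse brain-derived, GALC-null) stably expressing human GALC-G270D, with a wild-type GALC line, were compound-treated. Residual GALC activity was then read as fluorescence from 0.1 mM final HMU-β-gal at pH 5.2; higher signal means activation.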
As to `CCOc1ccccc1NC(=O)CCNS(=O)(=O)c1ccc2c(c1)CCN2C(=O)C1CC1`, the “activation” value is inactive: -13.8%.

`CCC(Sc1nnc(-c2ccc(OC)cc2)c(-c2ccc(OC)cc2)n1)C(=O)Nc1cccc(OC)c1` (configuration not stated): the “activation” value is inactive: -9.19%.

For the molecule `Fc1ccccc1N1CCN(c2c3c(nc4nncn24)CCC3)CC1`, the “activation” value is inactive: -4.19%.

On to `CCCCN(C)C(=O)Cn1ncc2c([nH]c3ccc(C)cc32)c1=O`, for which the “activation” value was inactive: 5.6%.

With `Cc1ccc(OCCCC(=O)Nc2sc3c(c2C(N)=O)CCCC3)cc1`, the “activation” value was inactive: -12.4%.

Take `Cn1ncc2c(N3CCN(c4ccccc4Cl)CC3)ncnc21`: the “activation” value was inactive: -15.4%.

Consider `COc1ccc(NC(=O)CN(c2ccc(C)cc2)S(=O)(=O)c2cccs2)cc1OC`, for which the “activation” value was inactive: -13.6%.

As to `CCCCS(=O)CC(O)CSc1nc(-c2ccc(OC)cc2)cc(-c2ccccc2)c1C#N` (configuration not stated), the “activation” value is inactive: -9.19%.

Consider `Cc1ccc(/C=C/c2onc(C)c2S(=O)(=O)N2CCC(C(=O)NCc3ccc(N(C)C)cc3)CC2)cc1`, for which the “activation” value is inactive: -9.39%.

Consider `COc1ccccc1NC(=O)c1sc2nc(-c3cc4ccccc4oc3=O)[nH]c(=O)c2c1C`, for which the “activation” value is inactive: -7.43%.

With `Cc1cc(C)cc(NC(=O)c2cccc(N3CCCS3(=O)=O)c2)c1`, the “activation” value was inactive: -8.44%.

For the molecule `Cc1cccc(NC(=O)c2c(NC(=O)c3ccco3)sc3c2CCC(C(C)(C)C)C3)c1` (configuration not stated), the “activation” value is inactive: -10.4%.

`CN(Cc1ccccc1)C(=O)C1CCN(Cc2cc3ccccc3n2Cc2ccccc2)CC1`: the “activation” value is inactive: -16.4%.

For `C#Cc1cccc(Nc2ncnc3cc(OCCOC)c(OCCOC)cc23)c1`, the “activation” value is inactive: -8.16%.

With `Cc1cccc(C(=O)Nc2nnc(SCc3cc(=O)n4cccc(C)c4n3)s2)c1`, the “activation” value was inactive: -9.52%.

As to `O=C(Cc1ccc(Cl)cc1)NCC(c1cccs1)S(=O)(=O)c1ccc(Cl)cc1` (configuration not stated), the “activation” value was inactive: -2.57%.

Turning to `O=C(CSc1nnc(-c2ccccc2F)o1)N1CCc2ccccc21`, the “activation” value was inactive: -11.7%.

Turning to `COc1ccc(C(=O)N/C(=C\c2cn(S(=O)(=O)N(C)C)c3ccccc23)C(=O)NCCCn2ccnc2)cc1`, the “activation” value is inactive: -0.671%.

In the case of `CCCCN(C)CCNC(=O)c1ccc2c(=O)n(CCc3ccccc3)c(=O)[nH]c2c1`, the “activation” value was inactive: -11.4%.

With `CCc1ccc(NC(=O)C(NS(=O)(=O)c2cccs2)C(C)C)cc1` (configuration not stated), the “activation” value is inactive: -9.2%.

Regarding `O=C(Nc1ccc2oc(-c3cccc4c(Br)cccc34)nc2c1)c1ccc(F)cc1`, the “activation” value is inactive: -17.5%.

Turning to `Cn1c(=O)c2c(c3ccccc31)OC(=O)CC2c1ccc(C(F)(F)F)cc1` (configuration not stated), the “activation” value was inactive: -15.8%.

Take `O=C(COC(=O)c1cc(-c2cccs2)nc2ccccc12)c1ccccc1`: the “activation” value is inactive: -16%.

As to `CCOC(=O)c1oc2ccc(S(=O)(=O)n3nc(-c4ccccc4OC)cc3N)cc2c1C`, the “activation” value was inactive: -13%.

Turning to `CCCN(Cc1cccs1)C(=O)Nc1cc(Cl)c(OC)cc1OC`, the “activation” value was inactive: -15.2%.

For `CCCN(CCC)CCCNC(=O)Cn1cnc2sc(C)c(S(=O)(=O)N3CCCCC3)c2c1=O`, the “activation” value is inactive: -25%.

For the molecule `O=C(c1ccc2c(c1)N(Cc1ccccc1F)C(=O)c1ccccc1S2(=O)=O)N1CCOCC1`, the “activation” value was inactive: -2.7%.

With `CCn1c(=O)n(-c2ccc(C)c(F)c2)c(=O)c2sc3ccccc3c21`, the “activation” value was inactive: -19.4%.

In the case of `COc1ccc(-c2cc(C(=O)Oc3ccccc3)c3cc(C)ccc3n2)cc1`, the “activation” value is inactive: -21.4%.

In the case of `COc1cccc(-n2c(SCC(=O)Nc3cc(C)ccc3C)nc3c(oc4ccccc43)c2=O)c1`, the “activation” value was inactive: -10.6%.

In the case of `CCOCCCNC(=O)c1ccc2nc(CCc3ccccc3)oc2c1`, the “activation” value was inactive: -4.7%.

For `COc1ccc(C2=NC3(CCCCC3)N(CC(=O)Nc3ccc(C(C)C)cc3)C2=O)cc1`, the “activation” value was inactive: -8.66%.

For `Cc1ccc(-c2nc3nc(C)cc(N4CCN(c5cc(Cl)ccc5C)CC4)n3n2)cc1`, the “activation” value was inactive: -9.45%.

Turning to `Cc1ccc2nc(N(Cc3cccnc3)C(=O)Cc3ccccc3)sc2c1`, the “activation” value was inactive: -22.2%.

With `COc1cccc(CN2CCc3nc(Nc4ccc5c(c4)OCCO5)ncc3C2)c1`, the “activation” value was inactive: -9.98%.

As for `O=C(NCCc1cccs1)c1ccc(Cn2c(SCc3ccc(F)cc3)nc3cccnc32)cc1`, the “activation” value was inactive: -14.8%.

Turning to `Fc1ccc(NCc2cccn2-c2nnc(N3CCOCC3)s2)cc1`, the “activation” value was inactive: -22.4%.

`CC1CCN(c2ncnc3c2cnn3-c2ccc(F)cc2)CC1`: the “activation” value was inactive: -3.91%.

As to `CCc1ccc(-n2c(=O)c3c4c(sc3n(CC(=O)NCCCOC)c2=O)CCCC4)cc1`, the “activation” value was inactive: -3.48%.

`COc1ccc(C(=O)CN2CCN(S(=O)(=O)c3ccc(C(C)C)cc3)CC2)cc1`: the “activation” value is inactive: -21%.

Consider `CCc1ccccc1NC(=O)CCn1nc(C)c2c(C)n(-c3ccccc3)nc2c1=O`, for which the “activation” value is inactive: -15.3%.

Take `COc1cccc(C2CC(=O)Nc3cc4c(cc32)OCCO4)c1OC` (configuration not stated): the “activation” value was inactive: -18.4%.

As for `CCOC(=O)c1ccccc1NC(=O)Cn1ncc2c([nH]c3ccccc32)c1=O`, the “activation” value is inactive: -11.5%.

As for `Cc1ccccc1Cn1c(SCc2ccc(C(=O)NC(C)c3ccccc3)cc2)nc2ccncc21` (configuration not stated), the “activation” value was inactive: -1.76%.

Take `COc1cccc(NC(=O)c2sc3nc(C)c(C(=O)Nc4ccc(C)cc4C)c(-c4ccccc4Cl)c3c2N)c1`: the “activation” value is inactive: -23.4%.

As to `CCc1ccc(-c2nc(CN3CCC(C(=O)NCCc4ccc(Cl)cc4)CC3)c(C)o2)cc1`, the “activation” value is inactive: -8.03%.

Regarding `CC1(C)O[C@H]2CC(=O)OC[C@]23[C@H]2CC[C@@]4(C)[C@H](c5ccoc5)OC(=O)[C@H]5O[C@]54[C@]2(C)C(=O)C[C@@H]13`, the “activation” value is inactive: -10.2%.
